Assay results reported in the supplement of paper PMC10681739.
± gives the standard deviation of the averaged measurements. The full ranking holds about 4,000 sequences; the median of “arbitrary fluorescence units” is about 830, and the highest 2% start at about 6,500. Most of the strongest results are missing from this list.

Molecular target: RUNX1 (UniProt Q01196)
Test: RUNX1 binding intensity (PBM fluorescence), RUNX1 alone (arbitrary fluorescence units); higher = stronger binding
Conditions: RUNX1 concentration 2 nM; ETS1 concentration 0 nM
Protocol: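 gcPBM on 36-bp genomic-derived probes (partner site mutated) containing one RUNX1 site and no ETS1 site. Recombinant human RUNX1 (2 nM) was incubated alone or with ETS1 (25 nM) and detected by anti-RUNX1 antibody fluorescence. Values are medians over 4 replicate spots (not normalised). The probes sit in constant array flanks that are not printed.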
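Note: Full-length recombinant human RUNX1 bound to double-stranded DNA microarray spots, detected with an Alexa488-labelled secondary antibody after the anti-RUNX1 primary, read as scanned spot fluorescence.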

Chain of UniProt Q01196 (Q01196 whole entry): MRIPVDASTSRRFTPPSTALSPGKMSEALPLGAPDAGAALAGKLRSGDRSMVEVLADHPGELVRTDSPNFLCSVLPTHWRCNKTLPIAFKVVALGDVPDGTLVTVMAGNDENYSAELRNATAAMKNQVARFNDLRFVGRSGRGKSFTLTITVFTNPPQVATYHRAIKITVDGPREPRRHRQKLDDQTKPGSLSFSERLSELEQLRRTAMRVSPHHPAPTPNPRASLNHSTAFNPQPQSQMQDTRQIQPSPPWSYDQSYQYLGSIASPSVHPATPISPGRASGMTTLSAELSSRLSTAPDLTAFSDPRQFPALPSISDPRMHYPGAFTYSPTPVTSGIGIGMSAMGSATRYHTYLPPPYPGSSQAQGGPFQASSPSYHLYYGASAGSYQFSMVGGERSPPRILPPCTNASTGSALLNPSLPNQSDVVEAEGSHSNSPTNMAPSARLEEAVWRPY

Sequence	RUNX1 binding intensity
CGGGCCCGATCGCCTTCGCCGCCGCCCGCCCGCAAA	973
GGCACCGGGAGTAGAGCTGCCCCTAGTTGCGGCAGT	731
GTTCTCCTTTCTGTGCCGAGTGTGGTTTGCTATCAA	1550
CCCTTCCCCACCGCAGTCCGCTCCCTGCCCCTCCCG	3930
CCGCTCTTGCTGGAGGTCTCTTGACCGCTCACCCTC	912
CTGTCTGCTTCACGTGGCCAGCCCTGACCGCGGCCC	857
CCTCTCCATCTTCAGCACCACTGAGGCCGCAGTCTC	1410
GTGGAAGCCACAGGGAGTGGGCAGCATGTAGCAGAA	789
GGTCCGAAAACGATTCTGGACCTGCGGGTATATCCA	767
AAAACCCAAACCACCCCTCAGGGAGCGTTAAGCAAG	786
AGCGCCACCGCAGTGATGCAAGTCGGCAGTTGTAGT	926
GGCGCGGGTAAGCCCTGGGACCCTCATGCTGGGGAG	714
CGACCTCCGTCCCTGGGTGGGATCGAACCACCAACC	1030
CTGGCCTCAGGCAGGAGGCAGTTTTGTGGCCCCAGG	973
CGGAGGCTCACCGCGAAGCCTCCTGGGACATGTAGT	803
TTTCTCAGGGTGACCGCGTTCCTTCGGCCCAGAGAG	897
CTGCGGGTGACTGAGCGGGGCCAGCCTGAAGGGCGG	790
CAGTTCTCAGGCTGCCTCCCTTCACCACAGCTGGCT	1060
TTGATAGCAAACCACACTCGGCACAGAAAGGAGAAC	1020
CGGGCCCTGTGGTTTCCAACACCCTGTAGGCGGCCT	1070
TAGGCAGGCAGGGTGTGCCTATAAGCCACATGAATG	636
GGCTGGAAAGGGTCTTGAGAGGAGGTGGTTGCCTTA	705
TGCCGGGTCACCACAGGCGCACGTGTTCCAGCAGGG	751
GGGAGGCAGTGTGAAGGGACTTTTGTGGTGAGTGAT	798
TTTGCACACATGCTGGCCTCCGCCTGACCACCTCCT	985

Sequence	RUNX1 binding intensity
CCCTCATCTTCATGCTTCAGGCAGCTGTGGTTTACC	1140
TGAGATTAGTGGTTAAGTTGGTGCCGGGTGTCATCC	978
ATAAGAATGTGGTTTCCAAAGTTCAGGTTCCTCTTG	1890
GTCAGAAAACACATAGTTGTGTTTAACCTCAGGAAA	888
GGGGAACGAAAGCTGCTGTCGTTACTGGCGGTTGTA	669
TTTCTGATTGTGGTTTCAAATTATTTGCTGTGTTGG	3190
GGGCGAAAGTGCGTCACTATGTCCGACCCGCAGTGC	778
GGGCCCTTCATGTGGCGCCTGCCGAGCTGTGGTTGG	730
TATCACGTTTGCTGCTGCTGCACCGCGACCTCAGCT	714
CTAAGGCTGTGGGGATGGGATGACAGAAAGAGTATC	806
CCTGCGGTACGCCTGGGTCACGCCTCTTGCGCTAAG	976
ATGGGGAACGTGAACTACGGCGGGAACCACAATCGC	783
TAAATGCTCACCACAACCTGCTGCCTTTTCTACCAG	1630
TCCACAGCCGGTTTCGGCCGGTTCCCACAAGCCCCT	909
CTGTTTGCTGCCTTTGCTGTCTGTGACCGCATCAGT	952
TCGTGAAAAAGGAGGTGGATAAAGTGGTTACGGCAA	779
CCAAACCCACTATCACTAATCATCTTTCTGTCATTC	1710
TAGGTCACCTCCGCAACACAGCAACGGAGGTAGGGT	622
CGGGCGCCCGCAGGCGGTGCTGCCGAATGCCCCGCC	830
GCACTGGAGGAATCTGCTCTCCCTTGCGGCTGGACG	739
CGGCCTTGCGGCATGGGCAGTCTCCGCCGCCATCCA	841
GCTGTCCATTCCCGAGATGTTAATGCGGGATCTTGC	819
CGAGGGAGCCTGAAAGATGGTGGTTACCAGATCTGC	686
CAGTGAACAGTTTTCTGTTCCTGTGGTTTTGACTTT	1310
CTCAGCTGAAGAGCGGGCCTCTGGGCCGCAGTGACC	683

Sequence	RUNX1 binding intensity
AGTTGCTAAGGCAATGACTGCCCGCAGCGCCTGGCC	735
CATGAGAAACACCCTGCCCAACCACCTGACTACAAG	1080
CAGTTTGCCCTGGATGTTGACCGCCTTGAAGTCGTA	830
GCGCTGTACTGCGGCTTGTGCCGCTCCCGCGAGAAG	721
TGGCCCGCAGCAGTCACGTGGCCGCGCCTCCTCGCA	678
GCTAAGAGCAGGCAATGATCTGGGAACCACCATCAC	793
CTATTGTGGTGCCTGTTACCTACAGCAAATGAGACA	704
TTGAGCGCGGTCTCGCCTCCGCTTGCTCCTCACTCC	810
CTGCCTTGCTTTTACGGTCGCCGCGGTCCTCTGCGC	841
AACACACACGTGGTTTCTCACCACTTGCTGGATGTC	907
GGAGGGGGAGGTGGGCGGCTCTGCGGCCGCCATCTT	884
AGTTGCCCGCAGGTCAACACCCAGTTCCCTTCAAAC	867
GTTTACCACAGGACTCAAGTCTACATTGCCTGTCTC	1320
CCCAACCATTCCCGCCACACCTCCAACCCACTGCCG	1970
GCTGGTATGGCAGGCAGTTTCTCACCACAGTATACT	762
AGGGTGTACTCGGGAGTTTCGAGTGGTTGCTTGGTT	728
CCATTGGCAACCGCGCTGCGCCAACTTTCGGGTTGT	896
GCACGCCTGTGGGTGCTCATGGGCAATGTAGTTTTT	657
GGCGGCTGTGGGCGCAAAACCCAAAACTGCCGATGG	748
GCGCGGCCCTGAAGGGGGTAACCGCTGAGTCTTTGA	696
CCCCTCAATTCCCTCAACCCTTCCCACAAACTGGGA	1730
TGGTGGAGCTGCGGCGGGCAATCGGAGATCGGCTAC	716
ATGTTATTGTGGCTTCAAATTGCCTCTTGGCAAGCC	813
TGCGCCGGGAGCAAGGGCTCCAAAACCACAGGGCGG	999
GCTAGACAGTAAACAGTGAGCTTCTGTGGGCAGGAG	814

Sequence	RUNX1 binding intensity
TGGAGAGCACTGGAAGTGGCCCACAGCCCAGGCCAA	619
GGAGGGCTCCCTGCCCACCACCACCCACAGCAGCTG	934
GGGGAAGAAGAAGCTGTGTCCGCGGTGCAAGGGGTT	713
AAACTACTTTCCATCCTACCAAAACCACACTAAAGA	2070
GCCCCGGGAGCTCCTTAAGGAGGACCGTGTGGGTTT	726
CCCGGAGGGTTCCAGGGGTCGGCCTGCGGCGCGTGC	1270
TTGTGCTTGCTGCTCATGAGATTGCTAGCGGTTACT	659 ± 48
TGCGCCGCTGCGCCGCAGCCTCCGTAAGACAGGGGA	722
AGCGGGAGGCAGTGCTGCAGTAGCCACAGCAGCCTG	808
ACTCTGCGGGCCAAGAAAGGTGACCGGGCTGCCTTC	700
TGTGAAGGAATCCATGGTTTCATGTCTGCGGCTCAG	663
CTTAAGCTGCCGCACCATGATGGCGGCAGCCGCAGC	716
GGAACAGTAAAAGCCTCCGGCAGCCCCTGCGGGCGG	696
GGATGAACAGAAAGCTAAAGTAAATACCACAGTGAC	848
CCTCTGAGCTGTGGTAACACCACTGCCTCCACTCCA	965
GCGCAAGGATCAGGTTTGTTGTGGTGTGGGGAGGGG	804
GTAAGATTCGTGGTTGAGCTTCTGTTTTACACTTGG	847
GTCTGCGGTACCTCGCCACGCCCCCGCCCTTCAGGT	1890
TTTCCTGAGGTTAAACACAACTATGTGTTTTCTGAC	789
CGAGGACGCGGTTCCCAGAACTGAAGCAACCTGGGG	775
GTGATGGTGGTTCCCAGATCATTGCCTGCTCTTAGC	838
GGAATCCTACATCCCACAGCCCCTTGCTGAGAAGAG	938
CTCAGCTTGTGGCTCCGGTGTCTCCGTTTTGGGGTT	813 ± 92
GCTGCCCACAGCGCTCACCCTCCAGATCCCGGCCGC	945
GGCTTGCGCCGCCACCACTGCCCCTCAACCGCCACG	916

Sequence	RUNX1 binding intensity
AGAAAGAAAAACCAAAGTGCCTCCAGGCAGTAAACA	729
TTTGTTGTTCAGGGTGCGAGGCGGCCGCAGCTTCCA	936
CCGCCTTTTCGGAGCGCGGGCGCGCGGTGGCGGGAG	791
TTGGCCTGGGCTGTGGGCCACTTCCAGTGCTCTCCA	668
TGGAAGAGGGCACGAAGTGTTGTGGTCACTCCCACC	748
GAGTGTTCCTGGAAAGCTGCGGCGTTGGAGCCGCGC	837
TGGTCTGTGGCTGATATTTACGGGAGATGGGGCGAG	816
CCCCATCCCCCGCATAGGGACCTCCTCTTTATTTAC	1620
TTTGTGACTTAACCACACCTACATTGCCCATTTAAG	1300
AGTTGGTTCCTTCAGGTGGGTTTGTGGGCTTGGGGT	780
GGTAAACCATGCGGTCGATGGGGAGGATCTGGAGAT	1270
CCATCCAGCAAGCTTATGGTGCGACCGCAGTGTGCC	918
AGCTGCAGGGTGTGGTCAGGAGAGGAGGCGAGGCCT	793
CCCCGGCTGTGGGGCTCTGGGAATCGGAGGCTAGCC	685
CATGAAAACCAACAAGCCTGGTCTCCTCTGCGCAGC	759
TCAGAACCAGAAAACTGAAGGCGGTTACTCCACATA	715
CCGAAGAGCAAGCTCCACAGGACCTCCGCGGTCAGC	749
CATCTGCGTACGGCACCCAGGAGGCTCGTGGTCCGC	838
CTGGGCCTCCATTCCTCCTCCCACAGCCATATGCGA	987
GCCAGGGCAGCAAGTTGCTAACCGCCCCAGAGCAGG	766
GCCCAGGCTGCGGGATGGGGTCATTTGCTGCCGCCT	754
CCCGGGGGCAGGCAATGTCGCCTTACCCACAGCCTT	914
GACTGGGAACGAAGGGGAGGCGGCAACCACCCTTCA	1450
ACACCGTTCATGAAGACAAAGCCACACCTCACACCA	985
ACCCGTATGTCGTTGGGCAGGAACTGCGGTGAGGGC	831
